From PubChem BioAssay AID1645882 (National Center for Advancing Translational Sciences (NCATS), 2021)
In all, about 16,000 compounds went through this assay and about 120 (0.75%) were called active. Roughly 4% stayed inconclusive and do not appear here. Calls come from the whole dose curve; as a rule, active = well fitted inhibition curve with a large enough effect; inconclusive = small, poorly fitted or top-dose-only effect; inactive = no such curve, though single readings can be large or run the other way. The list shows a part of the results. Where a SMILES comes first, the peptide text is derived from it. The star is where a group is joined. Boc = CC(C)(C)OC(=O)*

target: Rap guanine nucleotide exchange factor 3 (Homo sapiens) (UniProt O95398); test: Validation qHTS for antagonist of cAMP-regulated guanine nucleotide exchange factor 3 (EPAC1); details: EPAC1 Rap1B-BODIPY-GDP exchange, fluorescence; series mostly up to 150 µM; activity change, negative = inhibition: at the top concentration;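 note: plate controls were DMSO for no effect and ATA control for full effect; nearly all actives have a fitted effect of over 75% in size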
In short: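 EPAC1 (100 nM) mixed with 250 nM RAP1B-BODIPY-GDP and 50 uM GDP; compounds in concentration series, 5 min at room temperature. Fluorescence (ex 480/em 540 nm) read every 5 min for 30 min; normalized to ATA control and DMSO.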

UniProt O95398, sequence (O95398 whole entry, looked up): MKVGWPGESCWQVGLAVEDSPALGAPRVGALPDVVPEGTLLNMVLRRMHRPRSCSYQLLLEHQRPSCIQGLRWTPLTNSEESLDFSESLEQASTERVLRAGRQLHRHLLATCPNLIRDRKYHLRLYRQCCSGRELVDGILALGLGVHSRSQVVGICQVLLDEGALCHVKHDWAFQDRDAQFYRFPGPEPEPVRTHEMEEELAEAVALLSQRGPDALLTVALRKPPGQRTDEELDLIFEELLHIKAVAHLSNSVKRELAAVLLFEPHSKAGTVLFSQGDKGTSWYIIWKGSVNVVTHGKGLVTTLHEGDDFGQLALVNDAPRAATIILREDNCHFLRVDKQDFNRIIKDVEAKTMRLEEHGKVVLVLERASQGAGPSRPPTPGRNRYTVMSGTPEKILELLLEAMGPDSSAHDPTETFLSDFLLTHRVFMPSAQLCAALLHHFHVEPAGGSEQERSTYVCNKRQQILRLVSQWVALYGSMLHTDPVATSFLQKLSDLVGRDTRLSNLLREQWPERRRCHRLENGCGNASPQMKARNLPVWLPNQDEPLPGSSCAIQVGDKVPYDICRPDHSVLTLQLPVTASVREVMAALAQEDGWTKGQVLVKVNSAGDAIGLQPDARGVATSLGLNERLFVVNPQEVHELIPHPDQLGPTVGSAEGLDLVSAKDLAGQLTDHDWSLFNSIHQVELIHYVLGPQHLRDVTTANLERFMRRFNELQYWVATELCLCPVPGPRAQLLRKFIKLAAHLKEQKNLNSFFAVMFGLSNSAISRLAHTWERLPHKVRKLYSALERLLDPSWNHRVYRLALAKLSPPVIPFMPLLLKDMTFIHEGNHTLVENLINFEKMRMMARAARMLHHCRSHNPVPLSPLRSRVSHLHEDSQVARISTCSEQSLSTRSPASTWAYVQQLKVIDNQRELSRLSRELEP

Activity change, negative = inhibition, inactive:
Cc1cnc(CNc2nc(-c3c(C)noc3C)nc3ccccc23)cn1 3.66%, Cc1cc(CNC(=O)c2cnn(-c3ncc4c(n3)-c3ccccc3CC4)c2C2CC2)on1 -19.1%, Cc1cccc2c(C(O)c3cn(C)c4ccccc34)c[nH]c12 (centres undefined) -24.4%, COc1ccc(-c2c(O)c3c(OC)c4c(cc3oc2=O)OC(C)(C)CC4)cc1 12.9%, CCCCC/C=C/C=C1/C(=O)C=C[C@@H]1C/C=C\CCCC(=O)O 26.3% [at 15.3 µM], Cc1cnc(C)c(-c2cccc3c2OC(CNC(=O)C2(c4ccc(Cl)cc4)CC2)C3)n1 (centres undefined) -5.66%, CCC(C)[C@H]1COCCS(=O)(=O)N1Cc1ccc(Cl)cc1Cl (some centres undefined) -13.2%, Cc1c(C(=O)NCc2ccccc2Cl)sc2ncnc(NCC3CCCO3)c12 (centres undefined) 10.9%, COc1ccccc1C1CN(CCNC(=O)c2cscn2)Cc2ccccc2O1 (centres undefined) -26.1%, CS(=O)(=O)N1CCC2(CC1)CN(C(c1ccccc1)c1ccccc1)C2 -4.22%, C#C[C@]1(O)CCC2C3CCC4=C(CCC(=O)C4)C3CC[C@@]21C (some centres undefined) -0.219%, O=C(O)c1ccccc1C(=O)Nc1ccc(S(=O)(=O)Nc2nccs2)cc1 17.5%, CC(C)[C@H](NC(=O)CNC(=O)OC(C)(C)C)C(=O)N[C@H](C=O)C(C)C (Boc-Gly-Val-Val-aldehyde) 17.3% [at 201 µM], CS(=O)(=O)N1CCC2(CCCN(Cc3ccccc3)C2)CC1 29.3%, O=C(c1ccncc1)N1CCC[C@@]2(CCN(c3ccccc3)C2)C1 17.6%, CN(c1nccc(=O)[nH]1)C1CCN(c2nc3ccccc3n2Cc2ccc(F)cc2)CC1 14.9%, Cc1cnc(-n2ncc(C(=O)NCc3ccncc3)c2-c2cccs2)nc1-c1ccc(F)cc1 2.18%, CC(C)=CCCC(C)C1CC[C@@]2(C)C3=C(CC[C@@]12C)C1(C)CCC(O)C(C)(C)C1CC3 (some centres undefined) -3.5%, CC(=O)OC(C)OC(=O)C(C)c1ccc(-c2ccccc2)c(F)c1 (centres undefined), CN(C)C(=O)c1ccc(-c2nccc(NCc3cccs3)n2)cc1 19.4%, O=C(N/N=C\c1ccccc1O)c1ccccc1O 12.6%, CN(C)c1ccc(/C=C/c2c3c(nc4ccccc24)CCCC3)cc1 60.1%, COc1ncc2nc(-c3ccccc3)c(=O)n(C3CC3)c2n1 4.15%, CCN1CCCC1CNC(=O)c1cnn(-c2nccc(-c3ccc(C)o3)n2)c1C1CC1 (centres undefined) 12.2%, CS(=O)(=O)Nc1cccc(-c2nc(NCc3ccccc3)c3ccccc3n2)c1 -4.16%, COCc1c(C(=O)N2CCN(C3CCCC3)CC2)cnn1-c1ncc2c(n1)-c1ccccc1CCC2 13.3%, Cc1ncc(C[n+]2csc(CCOP(=O)(O)OP(=O)(O)O)c2C)c(N)n1 8.13%, Cn1c(=O)c(-c2ccccc2)nc2cnc(N3CCOCC3)nc21 12.6%, CC[C@H](CO)Nc1nc(NCc2ccccc2)c2ncn(C(C)C)c2n1, Cc1ccc(C(=O)Nc2cccc(-c3nc(CNC(=O)c4cccc(N(C)C)c4)c(C)o3)c2)s1 6.1%, O=P(O)(O)OC(Cn1cncn1)(Cn1cncn1)c1ccc(F)cc1F 15.2%, OCCN(CCO)c1nc(N2CCCCC2)c2nc(N(CCO)CCO)nc(N3CCCCC3)c2n1, CC(CCCCC(=O)Nc1ccc(C(F)(F)F)cc1)NCCc1cnc[nH]1 (centres undefined) 5.97%, c1nc(NCCN2CCOCC2)c2cc(-c3ccoc3)ccc2n1 13.1%, Cc1ccc(C)c(C(=O)N2CCC(C3(c4ccccn4)NC(=O)N(CC4CCCO4)C3=O)CC2)c1 (centres undefined) -4.13%, CC[C@@H]1[C@H]2CCCC(=O)N3CC[C@@H](C[C@@H]1OC(=O)Nc1ccccc1)[C@@H]23 13.4%, ClC(Cl)Cl 28.3%, CS(=O)(=O)N1CCC2(CCN(c3ccccc3)CC2)CC1 9.92%, Cc1cc(/C=C/c2ccnc3ccccc23)ccc1N(C)C 1.95%, COc1cc(=O)n2c(c1C(=O)NCc1ccco1)CCN(Cc1cccc(C)n1)CC2 1.86%, O=C(O)Cc1ccc(CCNS(=O)(=O)c2ccc(Cl)cc2)cc1 -7.33%, O=C(O)c1ccccc1-c1oc2cc(O)ccc2c(=O)c1Oc1ccccc1 2.69%, COc1ccc2c(c1)-c1nc(-n3ncc(C(=O)N(C)CCO)c3C3CC3)ncc1CC2 5.8%, CN1CCN(C(c2ccccc2)c2ccccc2)CC1, O=C(Cn1nc2ccccc2n1)N1CCOc2ccc(CN3CCc4sccc4C3)cc2C1 12.7%, COC(=O)[C@@H]1CC2=CC(=O)CC[C@]2(C)[C@@]23O[C@@H]2C[C@@]2(C)[C@@H](CC[C@@]24CCC(=O)O4)[C@H]13 -2.73%, CC(C)Cc1nc2cc(NS(=O)(=O)N(C)C)cc(C(=O)N3CCSCC3)c2n1C 3.75%, COc1cccc(Nc2ncc3ncc(=O)n(C[C@H]4CCCO4)c3n2)c1 28.9%, O=[N+]([O-])c1ccc2cn[nH]c2c1 0.214%, [N-]=[N+]=N[C@@H](CCN1CC[C@H](O)CCC1=O)c1ccccc1 -1.31%, Cn1ccnc1C1CCCCN1C(=O)CN1Cc2ccccc2OC(c2ccccc2F)C1 (centres undefined) 4.66%, O=c1onc2cnc3ccccc3n12, c1cncc(OC2CCN(Cc3ccc4c(c3)CN(Cc3ccc5c(c3)OCO5)CCO4)CC2)c1 9.63%, COc1ncc2nc(-c3cc(F)cc(F)c3)c(=O)n(C3CC3)c2n1 9.73%, CN(C)c1ccc(/C=C/c2cc[n+](C)c3ccccc23)cc1 -25.7%, C[C@]12CC[C@@H]3c4ccc(OC(=O)c5ccccc5)cc4CC[C@H]3[C@@H]1CC[C@@H]2O -16.3%, COc1cc(C=C2CCC/C(=C\c3ccc(O)c(OC)c3)C2=O)ccc1O 18.4%, Cc1c(C(=O)N(C)Cc2cccc3ncccc23)cnn1-c1nccc(-c2ccccc2F)n1 7.94%, N[C@H](C(=O)O)[C@@H]1[C@@H](C(=O)O)C1(F)F, CC(=O)c1ccccc1-c1ccc2c(c1)CC(CNC(=O)C[C@@H]1C[C@@H](C)NC(=S)N1)O2 (some centres undefined) 11.9%, CCCN(C/C=C/I)C1CCc2cccc(O)c2C1 (centres undefined) 39.1%, FC(F)(F)c1ccccc1-c1ccc2ncnc(N3CCOCC3)c2c1 2.95%, COc1cccc(Cn2c(=O)c(C)nc3cnc(Nc4ccccc4)nc32)c1 0.562%, CC(C)CC(=O)N1C/C=C\C[C@@H](c2ccc(Cl)cc2)N(Cc2ccc(Cl)cc2)C(=O)[C@@H]1Cc1ccccc1 -2.67%, CN(C)C(=O)c1ccc(-c2nc(N3CCOCC3)c3ccccc3n2)cc1 9.86%, CCCCCCc1c(C[C@H](N)C(=O)O)o[nH]c1=O, c1cc2c(cc1C1CCCCC1)c1c3n2CCN[C@H]3CCC1 -9.94%, O=C(c1n[nH]c2c1CCCC2)N1CCC(n2c(C3CCCO3)nc3ccccc32)CC1 (centres undefined) 13.4%, CCN(CC)CCNC(C(=O)OCCC(C)C)c1ccccc1 (centres undefined) 25.8%, C[C@@H]1C[C@H]2[C@@H]3CCC4=CC(=O)C=C[C@]4(C)[C@@]3(F)[C@@H](O)C[C@]2(C)[C@@]1(O)C(=O)COP(=O)(O)O 22.3%, Cc1cccc(CNC(=O)c2c3n(c(C)cc2=O)-c2ccccc2SC(c2ccsc2)C3)n1 (centres undefined) 12.9%, NCCCNCCCCNC(=O)C(O)NC(=O)CCCCCCN=C(N)N (centres undefined) 37.8%, COCCn1c(=O)cnc2cnc(Nc3ccccc3)nc21 -0.712%, CC(N)C(O)c1cccc(O)c1 (centres undefined) 21%, NO -0.401% [at 75.8 µM], Cc1cc(C)c(S(=O)(=O)Nc2ccccc2C(F)(F)F)c(C)c1 -7.52%, COCCC1CCCCN1Cc1nc(N2CCCC2)c2cc(OC)c(OC)cc2n1 (centres undefined) -2.83%, O=c1[nH]c2ccccc2n1CCCN1CCN(C(c2ccccc2)c2ccccc2)CC1 -2.02%, Nc1nc(Cl)nc2c1ncn2[C@@H]1O[C@H](CO)[C@@H](O)[C@H]1O, COc1ccc(NC(=O)N2CC3(CCN(C(=O)c4ccc(OC)cc4)CC3)C2)cc1 16%, N#C[C@H](Cc1ccc(O)cc1)c1ccc(O)cc1 8.56%, FC(F)(F)c1ccccc1-c1nc(NC2CCNCC2)c2ccccc2n1 -1.98%, CC(C)[C@H](CO)Nc1nc(Nc2ccc(C(=O)O)c(Cl)c2)c2ncn(C(C)C)c2n1 -20.8%, NC1(C(=O)O)C[C@@H](C(=O)O)[C@H](C(=O)O)C1, COc1cc(COc2cc(N)c(Cl)cc2C(=O)CCC2CCN(CCNS(C)(=O)=O)CC2)cc(OC)c1, CC(=O)N1CCC2(CCCN(c3ccccn3)C2)CC1 6.52%, COc1cccc(-c2cncnc2NCc2cnc(C)cn2)c1 11.9%, CCC[C@H](N[C@@H](C)C(=O)N1[C@@H]2CCCC[C@H]2C[C@H]1C(=O)O)C(=O)OCC 29.7%, COCC(=O)Nc1cc(C(=O)N2CCC(c3ccccc3)CC2)cc2nc(-c3ccccc3)n(C)c12 2.24%, Nc1nc2ncc(CNc3ccc(C(=O)N[C@@H](CCC(=O)O)C(=O)O)cc3)nc2c(=O)[nH]1 3.89%, COc1ccc(C(=O)c2ccccc2)c(O)c1O 16.3%, Cn1cnc([N+](=O)[O-])c1Sc1ncnc2nc[nH]c12, O=C(c1ccco1)N1CCC[C@@]2(CCN(c3ncccn3)C2)C1 23.6%, COc1ccc(C(=O)N2CCC[C@@]3(CCN(C(=O)NC(C)C)C3)C2)cc1 2.22%, CSc1nc(C(=O)NCc2nc(-c3cccc(NC(=O)c4ccc(C)s4)c3)oc2C)cs1 5.03%, C=C1C[C@@]23CC[C@H]4[C@@](C)(CCC[C@@]4(C)C(=O)OC4OC(CO)C(O)C(O)C4O)[C@@H]2CC[C@]1(OC1OC(CO)C(O)C(O)C1OC1OC(CO)C(O)C(O)C1O)C3 (some centres undefined) 0.891% [at 75.8 µM], CNC(=O)Oc1ccc2c(c1)C1(C)CCN(C)C1N2C (centres undefined) 5.85%, FC(F)(F)c1cccc(-c2cn[nH]c2C2CCCN(Cc3cccn3-c3ccccn3)C2)c1 (centres undefined) 13.2%, COc1cccc(C(=O)CC2c3c(c(Br)c4c(c3OC)OCO4)CCN2C)c1 (centres undefined) 9.02%
